Results as given in PubChem BioAssay AID1466 (National Center for Advancing Translational Sciences (NCATS), 2008).
The whole screen tested about 200,000 compounds, of which about 10 (0.005%) were called active. Inconclusive means that the source gave no clear call. Such entries were picked first, then a sample of the others. Calls come from the whole dose curve; as a rule, active = well fitted inhibition curve with a large enough effect; inconclusive = small, poorly fitted or top-dose-only effect, or effect the other way, or another doubt; inactive = no such curve, though single readings can be large or run the other way. No potency is given beside an inconclusive call; the fits are too rough.

The molecules below were run against Lysosomal alpha-glucosidase (Homo sapiens) (UniProt P10253) (assay: qHTS Assay for Inhibitors of Human alpha-Glucosidase as a Potential Chaperone Treatment of Pompe Disease). Details: purified human GAA, 4-MU-alpha-glucoside fluorescence; activity change, negative = inhibition: at 76.9 µM (top of the series) unless noted.
Outline: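 Read-out is 4-methylumbelliferone fluorescence (Ex 365/Em 440 nm) after NaOH/glycine stop at pH 10. Enzyme 4 nM, substrate 400 uM, pH 5.0 citrate buffer, 20 min room temperature; AC50 from Hill-equation concentration-response.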
Potency is the fitted concentration of half-maximal effect; tags give direction and shape of the fitted curve.
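Throughout, for activity change, negative = inhibition: plate controls were uninhibited enzyme wells for no effect and no-enzyme background for full effect.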

| SMILES | Potency | activity change, negative = inhibition |
| --- | --- | --- |
| CC(=O)Nc1ccccc1C(=O)N1CCN(c2cccc(C)c2C)CC1 | inconclusive [inhibitor, single point] |  |
| N#CC1=C(SCC(=O)Nc2cccc3cccnc23)NC(=O)C(C#N)C12CCCCC2 (stereo not given) | inconclusive [inhibitor, full curve] |  |
| Fc1ccccc1CSc1nnc(-c2cccs2)o1 |  | inconclusive: -20.2% [inhibitor] |
| CN1/C(=C/C(=O)c2cccs2)Sc2ccccc21 |  | inactive: -14.1% |
| Cc1cccc(NC(=S)NNC(=S)NCc2ccccc2)c1 |  | inactive: -6.55% |
| COc1ccc(/C=N\NC(=O)C2=NNC(=O)C2C)cc1 (stereo not given) |  | inactive: 4.72% |
| Cc1cc2nc(C3CCN(Cc4nnnn4Cc4ccccc4)CC3)[nH]c2cc1C | inconclusive [inhibitor, single point] |  |
| COc1ccc(-c2cc(C(F)(F)F)nc(S(=O)(=O)CCC(=O)N3CCOCC3)n2)cc1 | inconclusive [inhibitor, partial curve, poor fit] |  |
| Cc1ccc(C2(c3noc(CN(C)Cc4cnn(C)c4)n3)CCCC2)cc1 |  | inconclusive: 21.2% [activator] |
| COc1ccc(CN(CCC(c2ccc(F)cc2)C2CCOC(C)(C)C2)C(=O)c2ccco2)cc1 (stereo not given) | inconclusive [inhibitor, partial curve] |  |
| COC(=O)c1nn(-c2ccccc2)c(Sc2ccc(Cl)cc2)c1/C=N/O | inconclusive [inhibitor, single point] |  |
| O=C(c1ccc(-n2cccn2)cc1)N1CCc2c([nH]c3ccccc23)C1c1ccccn1 (stereo not given) | inconclusive [inhibitor, partial curve] |  |
| CCS(=O)(=O)N1CCN(C(=O)COc2ccc(-c3ccccc3)cc2)CC1 | inconclusive [inhibitor, single point] |  |
| CC(C)NC(=O)CC(=O)N/N=C/c1cccs1 |  | inconclusive: 16.3% [activator] |
| CN1C(=O)NC(c2ccccc2)(C(F)(F)F)S/C1=C(/C#N)c1nnc(N2CCOCC2)n1-c1ccccc1 (stereo not given) |  | inconclusive: -16.2% [inhibitor] |
| O=C(C1CC1)N1N=C(c2ccncc2)CC1(O)C(F)(F)F (stereo not given) |  | inconclusive: 16.8% [activator] |
| CN1C(=O)/C(=C/c2ccc(C(=O)NC3CCCC3)cc2)Oc2ccccc21 | inconclusive [activator, partial curve] |  |
| COc1ccc(C(=O)Nc2ccc(S(=O)(=O)N3CCCC3)cc2)cc1 | inconclusive [inhibitor, single point] |  |
| CCOC(=O)c1cc2cc3ccccc3cc2[nH]1 | inconclusive [activator, partial curve] |  |
| O=[N+]([O-])c1ccc(Nc2nc(NCCO)nc(N3CCCC3)n2)cc1 |  | inactive: -13.6% |
| CCN(CC)c1nc2ccccc2nc1C(C#N)C(=O)NCCCOC (stereo not given) | inconclusive [activator, single point] |  |
| COC(=O)[C@@]1(Cc2ccc(F)cc2)[C@H]2c3cc(C(=O)N(C)C)n(Cc4ccc(OC)c(OC)c4)c3C[C@H]2CN1C(=O)c1ccccc1 | inconclusive [inhibitor, single point] |  |

| SMILES | Potency | activity change, negative = inhibition |
| --- | --- | --- |
| COCCN1C(=O)c2oc3ccccc3c(=O)c2C1c1ccc(O)c(OC)c1 (stereo not given) | inconclusive [activator, single point] |  |
| CCOC(=O)N1CCN(C(=O)Nc2ccc(NC(=O)N3CCN(C(=O)OCC)CC3)cc2)CC1 |  | inconclusive: 15.9% [activator] |
| Nc1nc2n(n1)C(c1ccco1)CC(c1ccc(F)cc1)N2 (stereo not given) | inconclusive [inhibitor, single point] |  |
| CC12CNCC(C)(CN(C3(O)C(=O)Nc4ccc(Br)cc43)C1)C2=O (stereo not given) | inconclusive [inhibitor, single point] |  |
| O=C(COC(=O)c1cccs1)Nc1cccc(S(=O)(=O)N2CCOCC2)c1 | inconclusive [inhibitor, full curve, poor fit] |  |
| O=C(NCc1ccc(Cl)cc1)c1ccccc1Oc1ccccc1 | inconclusive [inhibitor, full curve, poor fit] |  |
| COC(=O)N/N=C/c1cccc(OCCSc2ccc(Cl)cc2)c1 |  | inconclusive: -16.2% [inhibitor] |
| CC(C)NC(=O)c1cc2c(C(F)(F)F)nn(C)c2s1 |  | inconclusive: 15% [activator] |
| Cc1ccc(-c2cn3cccnc3n2)cc1NC(=O)c1ccc(Br)o1 | inconclusive [activator, partial curve] |  |
| Cc1cccn2c(=O)c(/C=C(\C#N)C(=O)NCc3ccco3)c(N3CCCC(C)C3)nc12 (stereo not given) |  | inconclusive: -15.3% [inhibitor] |
| Cc1ccc(NC(=O)CNS(=O)(=O)c2ccc(F)cc2)cc1C | inconclusive [inhibitor, single point] |  |
| Brc1ccc(CSc2ccc3nnc(-c4ccccn4)n3n2)cc1 | inconclusive [inhibitor, single point] |  |
| N#Cc1cc2cc3c(cc2nc1N1CCOCC1)OCO3 | inconclusive [activator, partial curve] |  |
| CC(=O)/C(C#N)=C1\NC(=O)C(Cc2ccccc2Cl)S1 (stereo not given) | inconclusive [inhibitor, single point] |  |
| Nc1ccccc1C(=O)/C=C/c1ccc2c(c1)OCO2 |  | inactive: -0.784% |
| CCOc1ccc2c(c1)-c1c(ssc1=S)C(C)(C)N2C(=O)CSC1=NCCS1 | inconclusive [inhibitor, full curve, poor fit] |  |
| COc1ccc(NCC(O)COc2ccc(C(C)(C)C)cc2)cc1 (stereo not given) | inconclusive [inhibitor, full curve, poor fit] |  |
| COc1ccc(N2CCN(C(=O)c3cccc(N4C(=O)C5CC=CC(C)C5C4=O)c3)CC2)cc1 (stereo not given) | inconclusive [inhibitor, partial curve] |  |
| Cc1c(C(=O)N2CCCCC2C)sc2ncnc(N3CCc4ccccc4C3)c12 (stereo not given) | inconclusive [inhibitor, single point] |  |
| CCN(CC(=O)NCc1ccc(F)cc1)C(=O)/C=C/c1cccs1 |  | inactive: 1.59% |
| Cc1ccc2nc(-c3cccnc3)cc(C(=O)N3CCN(c4ccc([N+](=O)[O-])cc4)CC3)c2c1 | inconclusive [activator, partial curve, poor fit] |  |
| COc1ccc(NC(=O)CC2C(=O)N(c3ccc(Cl)cc3)C(=S)N2CCc2ccccn2)cc1 (stereo not given) |  | inconclusive: -18.8% [inhibitor] |

| SMILES | Potency | activity change, negative = inhibition |
| --- | --- | --- |
| COc1ccc(NC(=O)NCCc2cccc(Cl)c2)cc1OC |  | inconclusive: 14.5% [activator] |
| Cc1cccc(C(=O)N=c2c(C#N)cc3c(=O)n4cccc(C)c4nc3n2Cc2ccco2)c1 | inconclusive [activator, partial curve] |  |
| COCCCNC(=O)c1ccc(CS(=O)(=O)c2ccc(Br)cc2)o1 | inconclusive [inhibitor, single point] |  |
| COc1ccc(CCNC(=O)CSc2nc3[nH]ncc3c(=O)n2-c2ccccc2Br)cc1OC | inconclusive [inhibitor, single point] |  |
| CCN(C(=O)CSc1nncs1)c1c(N)n(Cc2ccccc2)c(=O)[nH]c1=O |  | inconclusive: -16.1% [inhibitor] |
| CC1CCCC(NC(=O)CSc2nnc(N)s2)C1C (stereo not given) |  | inconclusive: -16.2% [inhibitor] |
| COc1nc(OC/C(N)=N/O)nc(N2CCOCC2)n1 |  | inconclusive: -16.5% [inhibitor] |
| COCCN(CCOC)C(=O)c1cc2c(=O)n3ccccc3nc2s1 | inconclusive [activator, partial curve] |  |
| COc1ccc(OC)c(C(=O)CSc2nnc(Cc3cccs3)n2CCc2ccccc2)c1 |  | inconclusive: -15% [inhibitor] |
| Cc1nc(C(F)(F)F)ccc1C(=O)Nc1ccc(C(F)(F)F)cn1 | inconclusive [inhibitor, partial curve] |  |
| CCN(CC)C(=O)c1sc(NC(=O)c2ccc(C)c([N+](=O)[O-])c2)c(C#N)c1C | inconclusive [inhibitor, single point] |  |
| COCCn1c(C)cc(C(=O)CSc2nnc(-c3cccnc3)n2-c2ccccc2F)c1C |  | inconclusive: -15.5% [inhibitor] |
| O=C(COc1ccc(S(=O)(=O)N2CCCC2)cc1Cl)NC1CCCC1 | inconclusive [inhibitor, partial curve] |  |
| C=CCNCCCCOc1ccccc1-c1ccccc1 | inconclusive [inhibitor, partial curve] |  |
| CCOC(=O)C1CCCN(c2nc(C)nc3c2oc2ccccc23)C1 (stereo not given) | inconclusive [inhibitor, single point] |  |
| CN1/C(=C\C=N\NC(=O)c2cccnc2)C(C)(C)c2ccccc21 | inconclusive [inhibitor, partial curve] |  |
| COc1ccc(S(=O)(=O)NCCOc2ccccc2)cc1-n1cnnn1 | inconclusive [inhibitor, partial curve] |  |
| CC1CCCCN1C(=S)NCCc1ccccc1 (stereo not given) | inconclusive [inhibitor, partial curve] |  |
| COC(=O)C(NC(=O)COc1ccccc1)(Nc1nc2c(s1)CCCC2)C(F)(F)F (stereo not given) |  | inactive: -1.84% |
| CCCCCn1c(=O)[nH]c2cc(C(=O)NCc3ccccn3)ccc2c1=O | inconclusive [activator, partial curve, poor fit] |  |
| CC(C)CNC(=S)N1CCC(C(=O)c2ccc3c(c2)OCCO3)CC1 | inconclusive [inhibitor, partial curve, poor fit] |  |
